Over roughly 81,000 sequences, “one-hybrid fitness for binding NBS DNA” has its median near -0.1; the highest 2% begin near 0.36. The list shows a part of the results.

Sequences and labels used below:
B1: Caulobacter ParB omega fusion; a variant is named by its letters at X, in order, B8GW30 (parent)
chain: MESVVVGEPGMSEGRRGLGRGLSALLGEVDAAPAQAPGEQLGGSREAPIEILQRNPDQPRRTFREEDLEDLSNSIREKGVLQPILVRPSPDTAGEYQIVAGERAWRAAQRAGLKTVPIMVRELDDLAVLEIGIIENVQRADLNVLEEALSYKVLMEKFERTQENIAQTIGKSXSHVANXMRLLXLPDEVQSYLVSGELTAXHARAIAAAADPVALAKQIIEGGLSVRETEALARKAPNLSAGKSKGGRPPRVKDTDTQALESDLSSVLGLDVSIDHRGSTGTLTITYATLEQLDDLCNRLTRGI

The variants in this experiment derive from B1. The experiment is described as follows: one-hybrid fitness for binding NBS DNA (the Noc-binding site; scaled: cognate 1, non-cognate 0); higher = stronger binding. Conditions: with NBS DNA site. A digest of the protocol: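 Caulobacter ParB libraries with four specificity codons randomised were screened by bacterial one-hybrid selection in the E. coli USO strain, using a HIS3 reporter whose site lies 19 bp from the promoter. Selection ran for 48 hours at 37°C on M9 lacking histidine, with 0.1 mM IPTG and 5 mM 3-AT. Plasmids were Illumina-sequenced before and after selection, three replicate libraries were pooled, and variants with under 10 reads were dropped. Fitness is the log change in each variant's read ratio to wild type, rescaled against the cognate and non-cognate sites.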
With VARP, the “one-hybrid fitness for binding NBS DNA” value is not above 0.2.

With RVCM, the “one-hybrid fitness for binding NBS DNA” value was not above 0.2.

Turning to LNAV, the “one-hybrid fitness for binding NBS DNA” value is not above 0.2.

For the variant QMEG, the “one-hybrid fitness for binding NBS DNA” value is not above 0.2.

Turning to RVSD, the “one-hybrid fitness for binding NBS DNA” value is not above 0.2.

On to VVCT, for which the “one-hybrid fitness for binding NBS DNA” value is not above 0.2.

Turning to CMEC, the “one-hybrid fitness for binding NBS DNA” value was not above 0.2.

Consider QMMA, for which the “one-hybrid fitness for binding NBS DNA” value is not above 0.2.

On to QTKG, for which the “one-hybrid fitness for binding NBS DNA” value is 0.503.

With RPEK, the “one-hybrid fitness for binding NBS DNA” value was not above 0.2.

Regarding GWMI, the “one-hybrid fitness for binding NBS DNA” value is not above 0.2.

On to PKGY, for which the “one-hybrid fitness for binding NBS DNA” value was not above 0.2.

As for GHGM, the “one-hybrid fitness for binding NBS DNA” value is not above 0.2.

Take STLD: the “one-hybrid fitness for binding NBS DNA” value was not above 0.2.

On to TQMI, for which the “one-hybrid fitness for binding NBS DNA” value was not above 0.2.

ACIL: the “one-hybrid fitness for binding NBS DNA” value was not above 0.2.

With RPGH, the “one-hybrid fitness for binding NBS DNA” value was not above 0.2.

Take DGPY: the “one-hybrid fitness for binding NBS DNA” value is not above 0.2.

For TPYM, the “one-hybrid fitness for binding NBS DNA” value was not above 0.2.

PVMA: the “one-hybrid fitness for binding NBS DNA” value is not above 0.2.

ADNT: the “one-hybrid fitness for binding NBS DNA” value is not above 0.2.

In the case of LPTF, the “one-hybrid fitness for binding NBS DNA” value was not above 0.2.

As to RCSC, the “one-hybrid fitness for binding NBS DNA” value is not above 0.2.

Turning to EYLR, the “one-hybrid fitness for binding NBS DNA” value is not above 0.2.

As for SQAI, the “one-hybrid fitness for binding NBS DNA” value is not above 0.2.

For the variant RKDL, the “one-hybrid fitness for binding NBS DNA” value is not above 0.2.

Consider LMIT, for which the “one-hybrid fitness for binding NBS DNA” value is not above 0.2.

ESYR: the “one-hybrid fitness for binding NBS DNA” value is not above 0.2.

Turning to RCNL, the “one-hybrid fitness for binding NBS DNA” value is not above 0.2.

Take RFEF: the “one-hybrid fitness for binding NBS DNA” value is not above 0.2.

Consider MWHS, for which the “one-hybrid fitness for binding NBS DNA” value was not above 0.2.

Turning to LTNQ, the “one-hybrid fitness for binding NBS DNA” value is not above 0.2.

In the case of FPTH, the “one-hybrid fitness for binding NBS DNA” value is not above 0.2.

IDGR: the “one-hybrid fitness for binding NBS DNA” value is not above 0.2.

As to VHDF, the “one-hybrid fitness for binding NBS DNA” value was not above 0.2.

As for EFTT, the “one-hybrid fitness for binding NBS DNA” value was not above 0.2.

Regarding AMTF, the “one-hybrid fitness for binding NBS DNA” value is not above 0.2.

As to TVNS, the “one-hybrid fitness for binding NBS DNA” value is not above 0.2.

Consider LALM, for which the “one-hybrid fitness for binding NBS DNA” value was not above 0.2.

For QSIF, the “one-hybrid fitness for binding NBS DNA” value is not above 0.2.

Take WDYG: the “one-hybrid fitness for binding NBS DNA” value is not above 0.2.

Regarding GEIR, the “one-hybrid fitness for binding NBS DNA” value was not above 0.2.

With SGVS, the “one-hybrid fitness for binding NBS DNA” value was not above 0.2.

Turning to GGRH, the “one-hybrid fitness for binding NBS DNA” value was not above 0.2.

Regarding PRGT, the “one-hybrid fitness for binding NBS DNA” value is not above 0.2.

For the variant SRIS, the “one-hybrid fitness for binding NBS DNA” value is not above 0.2.

As to AAGF, the “one-hybrid fitness for binding NBS DNA” value is not above 0.2.

As to TQLP, the “one-hybrid fitness for binding NBS DNA” value is not above 0.2.

With RWLN, the “one-hybrid fitness for binding NBS DNA” value is not above 0.2.

In the case of SHIC, the “one-hybrid fitness for binding NBS DNA” value was not above 0.2.

As for SKFG, the “one-hybrid fitness for binding NBS DNA” value was not above 0.2.

With QTQG, the “one-hybrid fitness for binding NBS DNA” value was not above 0.2.

SREM: the “one-hybrid fitness for binding NBS DNA” value is not above 0.2.

Turning to TGAW, the “one-hybrid fitness for binding NBS DNA” value is not above 0.2.

In the case of YASS, the “one-hybrid fitness for binding NBS DNA” value was not above 0.2.

For RLHM, the “one-hybrid fitness for binding NBS DNA” value was not above 0.2.

EVCC: the “one-hybrid fitness for binding NBS DNA” value is not above 0.2.

For QSKR, the “one-hybrid fitness for binding NBS DNA” value turned out to be 0.979.

PRVM: the “one-hybrid fitness for binding NBS DNA” value is not above 0.2.

Take VLDC: the “one-hybrid fitness for binding NBS DNA” value is not above 0.2.

As to HRTV, the “one-hybrid fitness for binding NBS DNA” value is not above 0.2.

Take ERLP: the “one-hybrid fitness for binding NBS DNA” value is not above 0.2.

Regarding HAKA, the “one-hybrid fitness for binding NBS DNA” value was not above 0.2.

Regarding RMMP, the “one-hybrid fitness for binding NBS DNA” value was not above 0.2.

With DFPN, the “one-hybrid fitness for binding NBS DNA” value is not above 0.2.

Consider MNSG, for which the “one-hybrid fitness for binding NBS DNA” value is not above 0.2.

For SAIV, the “one-hybrid fitness for binding NBS DNA” value was not above 0.2.

For the variant QWFS, the “one-hybrid fitness for binding NBS DNA” value was not above 0.2.

As for FSYR, the “one-hybrid fitness for binding NBS DNA” value was not above 0.2.

Take REFQ: the “one-hybrid fitness for binding NBS DNA” value was not above 0.2.

On to QNPH, for which the “one-hybrid fitness for binding NBS DNA” value was not above 0.2.

Turning to CRHC, the “one-hybrid fitness for binding NBS DNA” value was not above 0.2.

As to REFC, the “one-hybrid fitness for binding NBS DNA” value was not above 0.2.

Turning to LYLC, the “one-hybrid fitness for binding NBS DNA” value is not above 0.2.

Consider PEGR, for which the “one-hybrid fitness for binding NBS DNA” value was not above 0.2.

Consider NCYT, for which the “one-hybrid fitness for binding NBS DNA” value is not above 0.2.

With MAHG, the “one-hybrid fitness for binding NBS DNA” value was not above 0.2.

Take YLTT: the “one-hybrid fitness for binding NBS DNA” value was not above 0.2.

DRSC: the “one-hybrid fitness for binding NBS DNA” value is not above 0.2.

Consider VGKR, for which the “one-hybrid fitness for binding NBS DNA” value was not above 0.2.

Take QPTY: the “one-hybrid fitness for binding NBS DNA” value was not above 0.2.

Regarding GTPY, the “one-hybrid fitness for binding NBS DNA” value is not above 0.2.

On to SGLC, for which the “one-hybrid fitness for binding NBS DNA” value was not above 0.2.

Take HPSD: the “one-hybrid fitness for binding NBS DNA” value is not above 0.2.

These data come from a collection of fitness landscapes (doi:10.1016/j.celrep.2020.107928).
